Laboratory results taken from the antibiotic and cytotoxicity screens of Wong et al. (2023).
This is one part of the list.

Tested on: S. aureus RN4220
Assay: growth inhibition call (relative growth <= 0.2)
Details: 50 µM

Growth inhibition call, inactive:
CC(C)NC(=O)Nc1ccc2c(c1)C(=O)N([C@H](C)CO)C[C@@H](C)[C@@H](CN(C)C(=O)C1CCCCC1)OCCCC[C@H](C)O2
C[C@H](CO)N1C[C@H](C)[C@@H](CN(C)C(=O)NC2CCCCC2)OCCCC[C@H](C)Oc2ccc(NS(=O)(=O)c3cccs3)cc2C1=O
COc1ccc(NC(=O)N(C)C[C@@H]2Oc3c(NC(=O)c4cc(C)nn4C)cccc3C(=O)N([C@@H](C)CO)C[C@H]2C)cc1
COC(=O)[C@H]1C2C(=O)N(C3CC3)C[C@]23C=C[C@H]1O3 (some centres not stated)
C[C@@H]1CN([C@H](C)CO)C(=O)c2cccc(NC(=O)Nc3ccccc3)c2O[C@@H]1CN(C)CC1CCCCC1
C[C@@H]1CCCCO[C@@H](CN(C)S(=O)(=O)c2cccs2)[C@@H](C)CN([C@H](C)CO)C(=O)c2cc(NC(=O)CCC(F)(F)F)ccc2O1
C[C@@H]1CN([C@@H](C)CO)C(=O)Cc2cc(NS(=O)(=O)c3ccc(F)cc3)ccc2O[C@@H]1CN(C)S(=O)(=O)c1ccc(F)cc1
Cc1ccc(S(=O)(=O)N(C)C[C@@H]2Oc3ccc(NC(=O)C4CC4)cc3CC(=O)N([C@@H](C)CO)C[C@H]2C)cc1
CCC(CC)C(=O)N1c2ccccc2Sc2ccccc21
O=C(C[C@@H]1C[C@@H]2c3cc(NC(=O)c4ccc5c(c4)OCO5)ccc3O[C@@H]2[C@@H](CO)O1)NCCc1ccccc1
COc1nc(N)nc2c1ncn2[C@@H]1O[C@H](CO)[C@@H](O)[C@@H]1O
C[C@@H]1CCCCO[C@@H](CN(C)C(=O)c2ccncc2)[C@H](C)CN([C@H](C)CO)C(=O)c2cc(NS(=O)(=O)c3ccc(Cl)cc3)ccc2O1
O=c1[nH]cnc2nc[nH]c12
COc1ccc(C#Cc2ccc([C@@H]3[C@@H](CO)N4CCCCN(S(=O)(=O)c5cn(C)cn5)C[C@H]34)cc2)cc1
Cc1noc(C)c1S(=O)(=O)Nc1cccc2c1O[C@H](CN(C)Cc1ccc(C(=O)O)cc1)[C@H](C)CN([C@@H](C)CO)C2=O
COc1ccc(NC(=O)N(C)C[C@H]2OCCCC[C@H](C)Oc3ccc(NS(=O)(=O)c4ccccc4)cc3C(=O)N([C@@H](C)CO)C[C@@H]2C)cc1
COc1ccc(S(=O)(=O)Nc2ccc3c(c2)C(=O)N([C@H](C)CO)C[C@H](C)[C@H](CN(C)Cc2ccc(Cl)c(Cl)c2)O3)cc1
O=C1N(Cc2ccccc2)Cc2ccccc2C[C@]12N=C(c1ccc(OCCCO)cc1)O[C@@H]2c1ccccc1
COc1ccc(S(=O)(=O)Nc2ccc3c(c2)C(=O)N([C@H](C)CO)C[C@H](C)[C@@H](CN(C)C(=O)C2CCCCC2)OCCCC[C@H](C)O3)cc1
CO[C@H]1CN(C)C(=O)c2cc(NS(C)(=O)=O)ccc2OC[C@H](C)N(C(=O)C2CCCCC2)C[C@@H]1C
CC(C)N1C[C@@H](CNCc2ccc(Oc3ccccc3)cc2)Oc2c(NC(=O)c3ccncc3)cccc2C1=O
CC(=O)N1Cc2cc(C(=O)NCC(F)(F)F)nc(-c3cccc(-c4cc5ccccc5o4)c3)c2[C@H]1CCO
N[C@@H](Cn1ccc(=O)n(Cc2ccccc2C(=O)O)c1=O)C(=O)O
C[C@H]1CN([C@@H](C)CO)C(=O)c2cc(NC(=O)Cc3ccccc3)ccc2O[C@H]1CN(C)S(=O)(=O)c1cn(C)cn1
C[C@@H]1CN([C@H](C)CO)C(=O)c2cc(NC(=O)Nc3cccc4ccccc34)ccc2O[C@H]1CN(C)C(=O)Nc1ccc(F)cc1
C[C@H]1CCCCO[C@@H](CN(C)Cc2ccc3c(c2)OCO3)[C@@H](C)CN([C@@H](C)CO)C(=O)c2cc(NS(=O)(=O)c3ccccc3)ccc2O1
Cc1nc(CO)co1
